Source: the supplement of paper PMC8948288
Shown are siRNA guide strands that differ only in the seed, positions 2 to 7.

Columns and labels:
H4 = assay: cell viability relative to siNT1 (ATP content); H4 human neuroglioma and GL261 mouse glioma; higher = less toxic; details: siRNA concentration 10 nM; 96 h; human
Protocol: (§1)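 Arrayed screen of all 4096 6mer seeds. Each seed sits at guide-strand positions 2-7 of a neutral 19mer siRNA backbone (siNT1-based, passenger strand 2'-O-methyl modified at positions 1-2 to block RISC loading, 3' DNA overhangs). The guide strand is built here as U + seed + ACAUGUAAACCA. Cells were reverse transfected in triplicate in 384-well plates (H4 at 10 nM, GL261 at 25 nM) with Lipofectamine RNAiMAX. Viability was read as ATP content (CellTiter-Glo) 96 h after transfection and normalised to siNT1 (%).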

GL261 = assay: as above; details: siRNA concentration 25 nM; 96 h; mouse
Protocol: as §1
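Also: cells reverse transfected with siRNA duplexes via lipid reagent, ATP read by luminescence, triplicate wells, values scaled to mean viability with non-targeting control siNT1.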

Sequence | cell viability (H4) | cell viability (GL261)
UACAUGAACAUGUAAACCA | 95.1% | 59.3%
UACAUGCACAUGUAAACCA | 16.5% | 58.5%
UACAUGGACAUGUAAACCA | 74.1% | 41.1%
UACAUGUACAUGUAAACCA | 43.8% | 41.4%
UACAUUAACAUGUAAACCA | 89.2% | 68.4%
UACAUUCACAUGUAAACCA | 92% | 43.7%
UACAUUGACAUGUAAACCA | 89% | 61.9%
UACAUUUACAUGUAAACCA | 94.3% | 55%
UACCAAAACAUGUAAACCA | 114% | 60.4%
UACCAACACAUGUAAACCA | 85.9% | 41.8%
UACCAAGACAUGUAAACCA | 87.3% | 50.6%
UACCAAUACAUGUAAACCA | 70.5% | 58.3%
UACCACAACAUGUAAACCA | 104% | 48.1%
UACCACCACAUGUAAACCA | 26.2% | 20.3%
UACCACGACAUGUAAACCA | 100% | 45.4%
UACCACUACAUGUAAACCA | 82.9% | 45.6%
UACCAGAACAUGUAAACCA | 79.8% | 47.9%
UACCAGCACAUGUAAACCA | 16.6% | 15.4%
UACCAGGACAUGUAAACCA | 77.3% | 42.3%
UACCAGUACAUGUAAACCA | 56.6% | 36.7%
UACCAUAACAUGUAAACCA | 96.3% | 61.5%
UACCAUCACAUGUAAACCA | 73.6% | 39.8%
UACCAUGACAUGUAAACCA | 86.1% | 56.8%
UACCAUUACAUGUAAACCA | 81.2% | 39.8%

Sequence | cell viability (H4) | cell viability (GL261)
UACCCAAACAUGUAAACCA | 85% | 73%
UACCCACACAUGUAAACCA | 70% | 29.3%
UACCCAGACAUGUAAACCA | 62.3% | 55.9%
UACCCAUACAUGUAAACCA | 58.5% | 70.3%
UACCCCAACAUGUAAACCA | 37.5% | 59.5%
UACCCCCACAUGUAAACCA | 20.1% | 25.4%
UACCCCGACAUGUAAACCA | 90.6% | 62.6%
UACCCCUACAUGUAAACCA | 25.9% | 43.7%
UACCCGAACAUGUAAACCA | 113% | 67.6%
UACCCGCACAUGUAAACCA | 28.8% | 45.2%
UACCCGGACAUGUAAACCA | 71.9% | 66.5%
UACCCGUACAUGUAAACCA | 102% | 62%
UACCCUAACAUGUAAACCA | 117% | 66.8%
UACCCUCACAUGUAAACCA | 41.8% | 40.2%
UACCCUGACAUGUAAACCA | 95.2% | 54.3%
UACCCUUACAUGUAAACCA | 77% | 71.2%
UACCGAAACAUGUAAACCA | 106% | 59.9%
UACCGACACAUGUAAACCA | 66.6% | 45.4%
UACCGAGACAUGUAAACCA | 111% | 70.9%
UACCGAUACAUGUAAACCA | 119% | 54.1%
UACCGCAACAUGUAAACCA | 79.2% | 64.7%
UACCGCCACAUGUAAACCA | 35.7% | 30.8%
UACCGCGACAUGUAAACCA | 102% | 65.8%
